# Reference: the supplement of paper PMC8728848
# The list shows a part of the results.
# Legend:
# Assay in all cases: glycan array binding signal (z-score within array); higher = stronger binding
# Details in all cases: glycan notation: IUPAC condensed, linker removed
# Fuc(a1-2)Gal = target: Fuc(a1-2)Gal
# Summary of the method: (§1)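 The binding signal is a Z-score computed within each array. Data were drawn from 3228 arrays in the Consortium for Functional Glycomics database, restricted to those with a known protein sequence. Scores were averaged over arrays of the same protein sequence at different concentrations or buffers, and over linkers, and negative values can be taken as non-binding.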
# Fuc(a1-2)Gal(b1-3)GalNAc = target: Fuc(a1-2)Gal(b1-3)GalNAc
# Summary of the method: as §1
# [1] = target: Fuc(a1-2)Gal(b1-3)GalNAc(a1-3)[Fuc(a1-2)]Gal(b1-4)Glc
# Summary of the method: as §1
# [2] = target: Fuc(a1-2)Gal(b1-3)GalNAc(a1-3)[Fuc(a1-2)]Gal(b1-4)GlcNAc
# Summary of the method: as §1
# [3] = target: Fuc(a1-2)Gal(b1-3)GalNAc(b1-3)Gal
# Summary of the method: as §1
# [4] = target: Fuc(a1-2)Gal(b1-3)GalNAc(b1-3)Gal(a1-4)Gal(b1-4)Glc
# Summary of the method: as §1
# [5] = target: Fuc(a1-2)Gal(b1-3)GalNAc(b1-4)[Neu5Ac(a2-3)]Gal(b1-4)Glc
# Summary of the method: as §1
# Fuc(a1-2)Gal(b1-3)GlcNAc = target: Fuc(a1-2)Gal(b1-3)GlcNAc
# Summary of the method: as §1
# [6] = target: Fuc(a1-2)Gal(b1-3)GlcNAc(b1-2)Man(a1-3)[Fuc(a1-2)Gal(b1-3)GlcNAc(b1-2)Man(a1-6)]Man(b1-4)GlcNAc(b1-4)GlcNAc
# Summary of the method: as §1
# [7] = target: Fuc(a1-2)Gal(b1-3)GlcNAc(b1-2)Man(a1-3)[Fuc(a1-2)Gal(b1-3)GlcNAc(b1-2)Man(a1-6)]Man(b1-4)GlcNAc(b1-4)[Fuc(a1-6)]GlcNAc
# Summary of the method: as §1
# [8] = target: Fuc(a1-2)Gal(b1-3)GlcNAc(b1-3)Gal(b1-4)Glc
# Summary of the method: as §1
# [9] = target: Fuc(a1-2)Gal(b1-3)GlcNAc(b1-3)GalNAc
# Summary of the method: as §1
# [10] = target: Fuc(a1-2)Gal(b1-3)GlcNAc(b1-3)[Fuc(a1-2)Gal(b1-3)GlcNAc(b1-6)]GalNAc
# Summary of the method: as §1
# [11] = target: Fuc(a1-2)Gal(b1-3)GlcNAc(b1-3)[Gal(b1-4)GlcNAc(b1-6)]Gal(b1-4)Glc
# Summary of the method: as §1
# [12] = target: Fuc(a1-2)Gal(b1-3)GlcNAc(b1-3)[Neu5Ac(a2-6)Gal(b1-4)GlcNAc(b1-6)]Gal(b1-4)Glc
# Summary of the method: as §1
# [13] = target: Fuc(a1-2)Gal(b1-3)GlcNAc6S
# Summary of the method: as §1
# [14] = target: Fuc(a1-2)Gal(b1-3)[Fuc(a1-4)]GlcNAc
# Summary of the method: as §1
# [15] = target: Fuc(a1-2)Gal(b1-3)[Fuc(a1-4)]GlcNAc(b1-2)Man(a1-3)[Fuc(a1-2)Gal(b1-3)[Fuc(a1-4)]GlcNAc(b1-2)Man(a1-3)]Man(b1-4)GlcNAc(b1-4)GlcNAc
# Summary of the method: as §1
# [16] = target: Fuc(a1-2)Gal(b1-3)[Fuc(a1-4)]GlcNAc(b1-2)Man(a1-3)[Fuc(a1-2)Gal(b1-3)[Fuc(a1-4)]GlcNAc(b1-2)Man(a1-6)]Man(b1-4)GlcNAc(b1-4)[Fuc(a1-6)]GlcNAc(b1-4)[Fuc(a1-6)]GlcNAc
# Summary of the method: as §1
# [17] = target: Fuc(a1-2)Gal(b1-3)[Fuc(a1-4)]GlcNAc(b1-3)[Fuc(a1-3)[Gal(b1-4)]GlcNAc(b1-6)]Gal(b1-4)Glc
# Summary of the method: as §1
# [18] = target: Fuc(a1-2)Gal(b1-3)[Fuc(a1-4)]GlcNAc(b1-3)[Gal(b1-4)GlcNAc(b1-6)]Gal(b1-4)Glc
# Summary of the method: as §1
# [19] = target: Fuc(a1-2)Gal(b1-4)Fuc(a1-3)]GlcNAc(b1-2)Man(a1-3)[Fuc(a1-2)Gal(b1-4)[Fuc(a1-3)]GlcNAc(b1-2)Man(a1-6)]Man(b1-4)GlcNAc(b1-4)GlcNAc
# Summary of the method: as §1
# Fuc(a1-2)Gal(b1-4)Glc = target: Fuc(a1-2)Gal(b1-4)Glc
# Summary of the method: as §1
# Fuc(a1-2)Gal(b1-4)Glc6S = target: Fuc(a1-2)Gal(b1-4)Glc6S
# Summary of the method: as §1
# Fuc(a1-2)Gal(b1-4)GlcNAc = target: Fuc(a1-2)Gal(b1-4)GlcNAc
# Summary of the method: as §1
# [20] = target: Fuc(a1-2)Gal(b1-4)GlcNAc(b1-2)Man
# Summary of the method: as §1
# [21] = target: Fuc(a1-2)Gal(b1-4)GlcNAc(b1-2)Man(a1-3)[Fuc(a1-2)Gal(b1-4)GlcNAc(b1-2)Man(a1-6)]Man(b1-4)GlcNAc(b1-4)GlcNAc
# Summary of the method: as §1
# [22] = target: Fuc(a1-2)Gal(b1-4)GlcNAc(b1-2)Man(a1-3)[Fuc(a1-2)Gal(b1-4)GlcNAc(b1-2)Man(a1-6)]Man(b1-4)GlcNAc(b1-4)[Fuc(a1-6)]GlcNAc
# Summary of the method: as §1
# [23] = target: Fuc(a1-2)Gal(b1-4)GlcNAc(b1-2)[Fuc(a1-2)Gal(b1-4)GlcNAc(b1-4)]Man(a1-3)[Fuc(a1-2)Gal(b1-4)GlcNAc(b1-2)Man(a1-6)]Man(b1-4)GlcNAc(b1-4)GlcNAc
# Summary of the method: as §1
# [24] = target: Fuc(a1-2)Gal(b1-4)GlcNAc(b1-3)Gal(b1-4)GlcNAc
# Summary of the method: as §1
binder,measurement,setting,value
"Apa (Mycobacterium tuberculosis), Rv1860 (protein) MHQVDPNLTRRKGRLAALAIAAMASASLVTVAVPATANADPEPAPPVPTTAASPPSTAAAPPAPATPVAPPPPAAANTPNAQPGDPNAAPPPADPNAPPPPVIAPNAPQPVRIDNPVGGFSFALPAGWVESDAAHFDYGSALLSKTTGDPPFPGQPPPVANDTRIVLGRLDQKLYASAEATDSKAAARLGSDMGEFYMPYPGTRINQETVSLDANGVSGSASYYEVKFSDPSKPNGQIWTGVIGSPAANAPDAGPPQRWFVVWLGTANNPVDKGAAKALAESIRPLVAPPPAPAPAPAEPAPAPAPAGEVAPTPTTPTPQRTLPA",glycan array binding signal (z-score),Fuc(a1-2)Gal,0.158
same,glycan array binding signal (z-score),Fuc(a1-2)Gal(b1-3)GalNAc,-0.082
same,glycan array binding signal (z-score),[1],2.08
same,glycan array binding signal (z-score),[2],1.19
same,glycan array binding signal (z-score),[3],4.21
same,glycan array binding signal (z-score),[4],0.117
same,glycan array binding signal (z-score),[5],-0.088
same,glycan array binding signal (z-score),Fuc(a1-2)Gal(b1-3)GlcNAc,-0.552
same,glycan array binding signal (z-score),[6],0.1
same,glycan array binding signal (z-score),[7],0.515
same,glycan array binding signal (z-score),[8],-0.255
same,glycan array binding signal (z-score),[9],-0.239
same,glycan array binding signal (z-score),[10],-0.06
same,glycan array binding signal (z-score),[11],-0.287
same,glycan array binding signal (z-score),[12],-0.081
same,glycan array binding signal (z-score),[13],0.469
same,glycan array binding signal (z-score),[14],-0.361
same,glycan array binding signal (z-score),[15],1.08
same,glycan array binding signal (z-score),[16],0.178
same,glycan array binding signal (z-score),[17],-0.325
same,glycan array binding signal (z-score),[18],-0.259
same,glycan array binding signal (z-score),[19],0.257
same,glycan array binding signal (z-score),Fuc(a1-2)Gal(b1-4)Glc,-0.059
same,glycan array binding signal (z-score),Fuc(a1-2)Gal(b1-4)Glc6S,-0.06
same,glycan array binding signal (z-score),Fuc(a1-2)Gal(b1-4)GlcNAc,-0.39
same,glycan array binding signal (z-score),[20],0.04
same,glycan array binding signal (z-score),[21],0.314
same,glycan array binding signal (z-score),[22],0.341
same,glycan array binding signal (z-score),[23],0.375
same,glycan array binding signal (z-score),[24],-0.329
